{"source": "paper PMC4336329", "about": "(PLoS ONE, 2015)", "note": "In all, about 310,000 compounds went through this assay and about 2,200 (0.71%) showed an effect of 50% or more. Effects have a minus sign here. Some of the results follow. Where a SMILES comes first, the peptide text is derived from it. [ ]: non-standard residue; d: D form. The star is where a group is joined. ξ: configuration not given here. Cbz = O=C(OCc1ccccc1)*; ξV = CC(C)C(N)C(=O)O", "data": [{"molecular_target": "human ether-à-go-go-related gene (hERG) potassium channel (human, UniProt Q12809)", "sequence (Q12809 whole entry, looked up)": "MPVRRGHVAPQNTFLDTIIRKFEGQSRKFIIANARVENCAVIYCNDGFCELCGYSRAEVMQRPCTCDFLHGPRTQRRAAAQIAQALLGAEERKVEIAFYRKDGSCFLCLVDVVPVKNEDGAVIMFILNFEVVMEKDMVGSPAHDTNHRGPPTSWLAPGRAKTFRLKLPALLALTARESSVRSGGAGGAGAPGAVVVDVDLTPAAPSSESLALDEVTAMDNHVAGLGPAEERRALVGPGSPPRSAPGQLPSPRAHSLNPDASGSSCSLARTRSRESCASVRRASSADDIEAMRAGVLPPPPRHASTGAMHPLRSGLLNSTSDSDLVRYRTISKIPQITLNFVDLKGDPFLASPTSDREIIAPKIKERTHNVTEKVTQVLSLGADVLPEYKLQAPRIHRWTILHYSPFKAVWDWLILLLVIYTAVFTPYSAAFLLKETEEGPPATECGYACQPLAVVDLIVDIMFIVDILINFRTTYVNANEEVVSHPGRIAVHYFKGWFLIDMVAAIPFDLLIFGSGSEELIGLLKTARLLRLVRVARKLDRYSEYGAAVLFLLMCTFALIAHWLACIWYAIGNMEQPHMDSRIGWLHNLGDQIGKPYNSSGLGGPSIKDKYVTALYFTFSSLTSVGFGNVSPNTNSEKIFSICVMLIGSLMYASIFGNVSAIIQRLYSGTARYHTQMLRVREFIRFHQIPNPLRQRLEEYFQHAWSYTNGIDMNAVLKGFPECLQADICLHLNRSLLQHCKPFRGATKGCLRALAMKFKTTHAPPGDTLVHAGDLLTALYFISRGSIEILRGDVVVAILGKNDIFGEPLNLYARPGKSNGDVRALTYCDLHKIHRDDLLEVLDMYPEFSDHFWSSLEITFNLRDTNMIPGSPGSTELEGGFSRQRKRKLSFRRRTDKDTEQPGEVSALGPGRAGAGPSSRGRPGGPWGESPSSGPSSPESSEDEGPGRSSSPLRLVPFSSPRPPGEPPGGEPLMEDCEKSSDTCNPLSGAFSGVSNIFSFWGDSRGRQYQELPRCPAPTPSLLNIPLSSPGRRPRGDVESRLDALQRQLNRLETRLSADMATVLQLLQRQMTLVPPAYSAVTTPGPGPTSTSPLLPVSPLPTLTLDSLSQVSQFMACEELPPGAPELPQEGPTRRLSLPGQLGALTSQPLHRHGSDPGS", "test": "primary screen, population patch clamp on CHO cells stably expressing hERG", "units": {"hERG current change (%, negative = inhibition) at 1uM": "%"}, "values": [{"smiles": "Cn1c(CN2CCOCC2)nc2cc(NC(=O)COc3ccccc3)ccc21", "hERG current change (%, negative = inhibition) at 1uM": 6.7}, {"smiles": "COc1ccc(OCC(O)CN2CCCCCC2)cc1", "note": "(stereo not drawn)", "hERG current change (%, negative = inhibition) at 1uM": 3.87}, {"smiles": "CCn1c(SCC(=O)NC2CCCc3ccccc32)nnc1-c1ccncc1", "note": "(stereo not drawn)", "hERG current change (%, negative = inhibition) at 1uM": 1.47}, {"smiles": "CCCCCCCN1CCC(=O)N([C@H](CO)Cc2ccccc2)CC1", "hERG current change (%, negative = inhibition) at 1uM": -77.2}, {"smiles": "COc1ccc(CN(Cc2cc3cc4c(cc3[nH]c2=O)OCO4)C(=O)NC2CCCCC2)cc1", "hERG current change (%, negative = inhibition) at 1uM": -8.93}, {"smiles": "CC1CN(c2ccc([N+](=O)[O-])cc2Cl)CCN1S(C)(=O)=O", "note": "(stereo not drawn)", "hERG current change (%, negative = inhibition) at 1uM": -9.35}, {"smiles": "CCN1C(=O)c2cccc3c(NS(=O)(=O)c4ccc(NC(C)=O)cc4)ccc1c23", "hERG current change (%, negative = inhibition) at 1uM": -0.0346}, {"smiles": "C=CCNCCOCCOc1ccc(Cl)cc1C(C)(C)C.O=C(O)C(=O)O", "hERG current change (%, negative = inhibition) at 1uM": 9.25}, {"smiles": "COc1ccccc1NC(=O)Cn1c(=O)n(-c2ccccc2)c(=O)c2oc3ccccc3c21", "hERG current change (%, negative = inhibition) at 1uM": 3.63}, {"smiles": "Cc1cccc2nc(-c3ccco3)c(Nc3ccccc3)n12", "hERG current change (%, negative = inhibition) at 1uM": 5.43}, {"smiles": "Cc1ccc(N(CC(O)CN2CCCCC2)S(=O)(=O)c2ccccc2[N+](=O)[O-])cc1", "note": "(stereo not drawn)", "hERG current change (%, negative = inhibition) at 1uM": -48.8}, {"smiles": "COC(=O)CNC(=O)C(NC(=O)OCc1ccccc1)C(C)C", "note": "(stereo not drawn) (Cbz-[ξV]-Gly-OMe)", "hERG current change (%, negative = inhibition) at 1uM": 6.38}, {"smiles": "Cc1oc(CC(C)C)cc1C(N)=O", "hERG current change (%, negative = inhibition) at 1uM": 17.7}, {"smiles": "COc1ccccc1CN1C(=NC(=O)CCC2CCCC2)SC2CS(=O)(=O)CC21", "note": "(stereo not drawn)", "hERG current change (%, negative = inhibition) at 1uM": 15.4}, {"smiles": "CCOC(=O)c1[nH]c2c(c1-c1ccccc1)C(=O)CC(c1ccccc1)C2", "note": "(stereo not drawn)", "hERG current change (%, negative = inhibition) at 1uM": -5.44}, {"smiles": "CCOc1ncccc1C(=O)OCC(=O)Nc1c(C)cccc1C", "hERG current change (%, negative = inhibition) at 1uM": 6.35}, {"smiles": "N#Cc1ccccc1Cn1cc(C#N)c2ccccc21", "hERG current change (%, negative = inhibition) at 1uM": 2.92}, {"smiles": "CCOC(=O)N1CC=C2C(C#N)=C(N)C(C#N)(C#N)[C@H](c3ccc(OCC)c(OCC)c3)[C@H]2C1", "hERG current change (%, negative = inhibition) at 1uM": 7.29}, {"smiles": "CCOc1cc(/C=C(/C#N)C(=O)Nc2ccc(OC)cc2)ccc1OCc1ccc(C(=O)O)cc1", "hERG current change (%, negative = inhibition) at 1uM": 11.6}, {"smiles": "CCc1ccc(/C=N/NC(=O)c2cc(C3CC3)nc3ccccc23)s1", "hERG current change (%, negative = inhibition) at 1uM": 3.91}, {"smiles": "CC(NC(=O)COc1cccnc1[N+](=O)[O-])c1ccc(Cl)cc1Cl", "note": "(stereo not drawn)", "hERG current change (%, negative = inhibition) at 1uM": 9.69}, {"smiles": "Cl.O=C(OCCN1CCCCC1)C1(c2ccccc2)CCCC1", "hERG current change (%, negative = inhibition) at 1uM": 15.3}, {"smiles": "O=C1C(Cl)=C(N2CCN(Cc3ccccc3)CC2)C(=O)N1Cc1ccccc1", "hERG current change (%, negative = inhibition) at 1uM": 8.7}, {"smiles": "Fc1ccc(N2Cc3ccsc3C=N2)cc1", "hERG current change (%, negative = inhibition) at 1uM": 9.09}, {"smiles": "N#Cc1ccc(COC(=O)CSc2nnc(N)s2)cc1", "hERG current change (%, negative = inhibition) at 1uM": 13.6}, {"smiles": "O=C(NNC(=O)c1sccc1-n1cccc1)c1ccccc1", "hERG current change (%, negative = inhibition) at 1uM": 8.34}, {"smiles": "CCOc1ccc(C(=O)OCC(=O)Nc2nc(OC)cc(OC)n2)cc1OCC", "hERG current change (%, negative = inhibition) at 1uM": 12.3}, {"smiles": "Cl.OC1(C#CCN2CCCC2)CCCCC1", "hERG current change (%, negative = inhibition) at 1uM": 10.1}, {"smiles": "Cc1nn(-c2ccccc2)c2sc(C(=O)NNC(=O)COc3cccc4ccccc34)cc12", "hERG current change (%, negative = inhibition) at 1uM": 1.28}, {"smiles": "CCOC(=O)CN(C(=O)c1snc(C(N)=O)c1N)C(C(=O)NCCC(C)C)c1ccc(F)cc1", "note": "(stereo not drawn)", "hERG current change (%, negative = inhibition) at 1uM": 7.34}, {"smiles": "Cc1c(NC(=O)C(C)C)cccc1-c1nc2ncccc2o1", "hERG current change (%, negative = inhibition) at 1uM": 18.5}, {"smiles": "CCOC(=O)N1CCN(C(=O)CCS(=O)(=O)c2ccc(Br)s2)CC1", "hERG current change (%, negative = inhibition) at 1uM": 11.9}, {"smiles": "COc1ccc2[nH]c(=O)c(CN(C(C)=O)C3CCCCC3)cc2c1", "hERG current change (%, negative = inhibition) at 1uM": -3.87}, {"smiles": "CCc1ccc(-c2cc3c(=O)n(CC(=O)NCCCN4CCN(C)CC4)ncn3n2)cc1", "hERG current change (%, negative = inhibition) at 1uM": 3.4}, {"smiles": "O=C(NCCCCc1ccccc1)Nc1ccc(F)cc1F", "hERG current change (%, negative = inhibition) at 1uM": 12}, {"smiles": "O=C(/C=C/c1c(Cl)cccc1Cl)N1CCN(c2ncccn2)CC1", "hERG current change (%, negative = inhibition) at 1uM": -53}, {"smiles": "Cc1ccc(NC(=O)CSCC(=O)Nc2cccc(S(=O)(=O)N3CCCCCC3)c2)cc1", "hERG current change (%, negative = inhibition) at 1uM": 4.25}, {"smiles": "CCOC(=O)c1ccc(NC(=O)c2cc3c(C)nn(-c4ccccc4Cl)c3s2)s1", "hERG current change (%, negative = inhibition) at 1uM": 15.4}, {"smiles": "COc1ccccc1-c1nc(C#N)c(N2CCN(c3cccc(Cl)c3)CC2)o1", "hERG current change (%, negative = inhibition) at 1uM": 1.63}, {"smiles": "Cc1ccc(C2/C(=C(/O)c3ccc(Cl)cc3)C(=O)C(=O)N2CC2CCCO2)o1", "note": "(stereo not drawn)", "hERG current change (%, negative = inhibition) at 1uM": 12.5}, {"smiles": "COc1ccc(CC(=O)NCc2nnc(SCC(=O)Nc3ncc(C)s3)n2C)cc1", "hERG current change (%, negative = inhibition) at 1uM": 8.24}, {"smiles": "O=C(CN1C(=O)COc2ccccc21)N1CCCC1", "hERG current change (%, negative = inhibition) at 1uM": 14.3}, {"smiles": "CC(C)OC(=O)c1c2c(n3ccccc13)C(=O)c1ccccc1C2=O", "hERG current change (%, negative = inhibition) at 1uM": 8.56}, {"smiles": "CCCC(=O)c1ccc2c(c1)OCCO2", "hERG current change (%, negative = inhibition) at 1uM": 13.4}, {"smiles": "Cc1nc(N2CCN(C(=O)COc3ccccc3)CC2)c2c(C)c(C)sc2n1.Cl", "hERG current change (%, negative = inhibition) at 1uM": -29.3}]}]}
